# Data as given in PubChem BioAssay (NCATS).
# Inconclusive means that the source gave no clear call. Such entries were picked first, then a sample of the others. Where the call is inconclusive, the potency comes from a doubtful curve fit. The source made the active and inactive calls. Calls follow the shape of the dose curve; as a rule, active = well fitted inhibition curve with a large enough effect; inconclusive = small, poorly fitted or top-dose-only effect; inactive = flat fitted curve, though single readings scatter.
# Target: Lysine-specific demethylase 5B (Homo sapiens) (UniProt Q9UGL1)
# Sequence of UniProt Q9UGL1 (Q9UGL1 whole entry, looked up): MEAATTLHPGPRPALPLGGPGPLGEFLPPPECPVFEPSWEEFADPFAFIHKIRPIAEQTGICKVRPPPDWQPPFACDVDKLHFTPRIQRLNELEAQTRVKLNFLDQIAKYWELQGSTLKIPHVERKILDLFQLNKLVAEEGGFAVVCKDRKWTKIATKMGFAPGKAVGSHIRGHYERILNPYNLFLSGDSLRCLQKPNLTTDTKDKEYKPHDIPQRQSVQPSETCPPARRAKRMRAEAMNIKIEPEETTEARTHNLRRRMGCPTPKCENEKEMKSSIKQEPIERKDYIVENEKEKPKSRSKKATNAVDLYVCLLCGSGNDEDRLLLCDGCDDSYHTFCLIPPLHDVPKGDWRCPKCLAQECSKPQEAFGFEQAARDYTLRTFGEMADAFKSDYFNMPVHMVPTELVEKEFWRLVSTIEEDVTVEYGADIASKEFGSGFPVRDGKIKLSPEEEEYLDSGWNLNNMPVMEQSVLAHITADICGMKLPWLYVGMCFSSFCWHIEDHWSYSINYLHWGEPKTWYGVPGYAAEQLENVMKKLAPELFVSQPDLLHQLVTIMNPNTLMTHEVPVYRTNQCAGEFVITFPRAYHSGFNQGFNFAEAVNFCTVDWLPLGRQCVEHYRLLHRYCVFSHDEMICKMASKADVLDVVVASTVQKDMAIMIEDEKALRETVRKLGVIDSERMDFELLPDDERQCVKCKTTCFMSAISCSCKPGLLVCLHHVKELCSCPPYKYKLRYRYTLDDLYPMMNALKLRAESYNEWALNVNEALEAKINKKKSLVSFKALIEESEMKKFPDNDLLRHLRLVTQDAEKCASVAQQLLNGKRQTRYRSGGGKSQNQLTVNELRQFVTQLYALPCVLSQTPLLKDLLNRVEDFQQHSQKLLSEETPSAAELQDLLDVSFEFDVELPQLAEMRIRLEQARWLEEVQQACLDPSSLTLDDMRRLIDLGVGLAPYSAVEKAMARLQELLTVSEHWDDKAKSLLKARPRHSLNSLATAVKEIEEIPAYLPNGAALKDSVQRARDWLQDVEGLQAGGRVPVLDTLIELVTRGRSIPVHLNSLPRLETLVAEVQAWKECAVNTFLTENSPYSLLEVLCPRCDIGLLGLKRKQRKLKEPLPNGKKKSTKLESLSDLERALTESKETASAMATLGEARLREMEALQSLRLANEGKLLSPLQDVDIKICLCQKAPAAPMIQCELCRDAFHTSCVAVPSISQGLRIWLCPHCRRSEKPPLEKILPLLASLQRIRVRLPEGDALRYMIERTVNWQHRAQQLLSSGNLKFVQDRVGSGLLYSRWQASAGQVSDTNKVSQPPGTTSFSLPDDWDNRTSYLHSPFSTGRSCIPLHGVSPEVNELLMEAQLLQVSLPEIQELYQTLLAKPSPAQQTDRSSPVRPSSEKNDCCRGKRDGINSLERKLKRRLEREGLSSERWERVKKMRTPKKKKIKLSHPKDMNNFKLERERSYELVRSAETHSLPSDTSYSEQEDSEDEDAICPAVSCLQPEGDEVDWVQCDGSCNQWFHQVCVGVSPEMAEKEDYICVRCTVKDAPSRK
# Test: Optimization screen for KDM5B Histone Demethylases FDH coupled qHTS against the LOPAC library (AID 1347166)
# Conditions: KDM5B demethylation, FDH-coupled NADH fluorescence (FDH is formaldehyde dehydrogenase); series mostly up to 57.5 µM
# Text: Assay Submitter (PI): Qin Yan, Ph.D. (Yale University) and Xiaodong Cheng, Ph.D. (MD Anderson)
# This project was funded as part of the NCI NEXT Program and Chemical Biology Consortium (CBC)
# The histone demethylases, KDM5A and KDM5B catalyze the demethylation of lysine 4 on histone H3 (H3K4me3/2). They
# are overexpressed in a variety of cancers and have been implicated in cancer cell growth, metastasis, drug resistance, and tumor growth. KDM5A is amplified and overexpressed in breast and gastric cancer; and is translocated in leukemia. While KDM5B is highly expressed in human mammary tumors and breast cancer cell lines, but not in normal adult breast tissue. Moreover, knockdown of KDM5B leads to upregulation of tumor suppressor genes, including BRCA1. The goal of this project is to employ qHTS to identify selective small molecule inhibitors of KDM5A/B demethylase activity to better understand the role of KDM5 in cancer and to develop novel therapies.
# We employed an FDH-coupled assay previously reported by Sakurai et al. to monitor in vitro KDM5 demethylase activity. Compounds showing dose response inhibition are re-acquired, validated, and tested for non-specific interference with the formaldehyde dehydrogenase (FDH) counterscreen. True inhibitors are validated using an AlphaLisa secondary screen, which employs an H3K4(me2-1)-specific antibody to monitor demethylation of a biotin-tagged H3K4(me3) peptide substrate. Inhibitors are profiled against KDM4A and KDM6A AlphaLisa counterscreens to determine level of demethylase specificity; and against the TruHits counterscreen to eliminate non-specific inhibitory activity on the AlphaLISA detection method. Selective inhibitors identified from the primary and secondary screening are tested in cells using immunofluorescence to monitor global H3K4 tri-methylation as a measure of KDM5A/B inhibition. This assay is run against the NCGC Lopac collection of about 1,200 compounds to evaluate its amenability to quantitative High Throughput Screening (qHTS) platform.
# Early Translation Branch (ETB)
# National Center for Advancing Translational Sciences (NCATS), Rockville, MD
# National Institute of Health (NIH), Bethesda, Maryland
# [1] Sakurai, M et al. A miniaturized screen for inhibitors of Jumonji histone demethylases. Mol Biosyst. 2010 Feb;6(2):357-64. doi: 10.1039/b912993f. Epub 2009 Oct 8.
# 1536-well Black, solid bottom, medium binding assay plate is purchased from Greiner Bio-one. The enzymes (KDM5B) and substrate (H3K4me3/2) are provided by the principal investigators. The buffer for this assay is composed of 50mM HEPES at pH 7.5 with 0.01% Tween-20.
# FDH coupled qHTS protocol:
# Three microliter enzyme mix (buffer + 200nM KDM5BDeltaAP final concentration) is dispensed into the assay plate using the BioRAPTR Flying Reagent Dispenser (FRD; Beckton-Dickenson). Compound (at various final concentration) and control solution is pin transferred to the assay plate using the Kalypsys 1536-pin tool apparatus. The assay plate is incubated for 10 min at room temperature followed by addition of 1uL substrate mix (buffer + 100uM ascorbic acid, 50uM ferrous ammonium sulfate, 12.5uM H3K4Me3, 25uM a-ketoglutarate, 0.25 mM NAD+, 0.25 U/mL formaldehyde dehydrogenase using the FRD yielding a total reaction volume of 4 uL. Initial fluorescence (Read1) is detected using the PerkinElmer ViewLux plate reader equipped with 340 nm excitation and 450 nm emission filters. The final fluorescence (Read2) signal is obtained after 30 min of room temperature incubation. Delta RFU is calculated (Read2 - Read1) and is used to generated dose response curves
# Potency is read from the fitted curve at half-maximal effect; tags tell the direction and shape of the fitted curve.
row,Compound,Potency
1,O=c1onc2cnc3ccccc3n12,"inconclusive: 28.2 µM [inhibitor, partial curve, poor fit]"
2,CSc1ccc2c(c1)C(N1CCN(C)CC1)Cc1ccccc1S2 (stereo not given),inactive
3,O=Nc1ccc2oc(=O)ccc2c1,"inconclusive: 3.55 µM [inhibitor, full curve, poor fit]"
4,O=C(Nc1cccc(C(=O)Nc2ccc(S(=O)(=O)O)c3cc(S(=O)(=O)O)cc(S(=O)(=O)O)c23)c1)Nc1cccc(C(=O)Nc2ccc(S(=O)(=O)O)c3cc(S(=O)(=O)O)cc(S(=O)(=O)O)c23)c1,inactive
5,Cc1cccc(/C=C/c2ccccc2)n1,"inconclusive: 28.2 µM [inhibitor, partial curve, poor fit]"
6,CN1CCN(C2=Nc3cc(Cl)ccc3Nc3ccccc32)CC1,inactive
7,O=C1NC(=O)C(c2ccccc2[N+](=O)[O-])=C1Nc1ccc(O)c(Cl)c1,"inconclusive: 20 µM [inhibitor, partial curve, poor fit]"
8,O=C(O)/C=C/c1ccc(O)c(O)c1,"inconclusive: 10 µM [inhibitor, partial curve, poor fit]"
9,CN[C@H](CC(=O)O)C(=O)O,inactive
10,COc1cc2nc(N3CCN(C(=O)C4CCCO4)CC3)nc(N)c2cc1OC (stereo not given),"inconclusive: 25.1 µM [inhibitor, partial curve, poor fit]"
11,NC(CCCP(=O)(O)O)C(=O)O (stereo not given),inactive
12,CC(C)NC[C@@H](O)c1ccc(O)c(O)c1,"inconclusive: 17.8 µM [inhibitor, partial curve, poor fit]"
13,Cc1ccc(C(=O)Nc2ccc(S(=O)(=O)O)c3cc(S(=O)(=O)O)cc(S(=O)(=O)O)c23)cc1NC(=O)c1cccc(NC(=O)Nc2cccc(C(=O)Nc3cc(C(=O)Nc4ccc(S(=O)(=O)O)c5cc(S(=O)(=O)O)cc(S(=O)(=O)O)c45)ccc3C)c2)c1,"inconclusive: 39.8 µM [inhibitor, single point]"
14,CC(=O)Oc1ccccc1C(=O)O,"inconclusive: 28.2 µM [inhibitor, partial curve, poor fit]"
15,NC(CO)C(=O)NNCc1ccc(O)c(O)c1O (stereo not given),"inconclusive: 28.2 µM [inhibitor, partial curve, poor fit]"
16,Oc1ccc2ccccc2c1SSc1c(O)ccc2ccccc12,"inconclusive: 3.16 µM [inhibitor, full curve, poor fit]"
17,Cc1[nH]c(=O)c(C#N)cc1-c1ccncc1,"inconclusive: 39.8 µM [inhibitor, single point]"
18,O=Nc1c(-c2c(O)[nH]c3ccccc23)[nH]c2ccccc12,inactive
19,Oc1ccc(/C=C/c2cc(O)cc(O)c2)cc1,"inconclusive: 22.4 µM [inhibitor, partial curve, poor fit]"
20,CC1=C(CC(=O)O)c2cc(F)ccc2/C1=C\c1ccc(S(C)=O)cc1 (stereo not given),"inconclusive: 22.4 µM [inhibitor, single point]"

row,Compound,Potency
1,CC(=O)/C=C1\C(=O)N(C)c2ccccc21,"inconclusive: 15.8 µM [inhibitor, partial curve, poor fit]"
2,Oc1ccc(O)cc1,"inconclusive: 22.4 µM [inhibitor, partial curve, poor fit]"
3,N#C/C(=C\c1ccc(O)c(O)c1)C(=O)Nc1ccccc1,"inconclusive: 25.1 µM [inhibitor, partial curve, poor fit]"
4,CC1(C)CCC2=C(O1)c1ccccc1C(=O)C2=O,"inconclusive: 15.8 µM [inhibitor, partial curve, poor fit]"
5,O=[N+]([O-])c1ccc2c(c1)S(=O)(=O)C=C2,"inconclusive: 10 µM [inhibitor, partial curve, poor fit]"
6,O=c1cc(N2CCOCC2)oc2c(-c3ccccc3)cccc12,"inconclusive: 22.4 µM [inhibitor, single point]"
7,O=C1NC(=O)/C(=C/c2ccc(-c3ccc(F)cc3O)o2)S1,"inconclusive: 17.8 µM [inhibitor, partial curve, poor fit]"
8,CC(=O)SCC[N+](C)(C)C,inactive
9,CNCC(O)c1ccc(O)c(O)c1 (stereo not given),"inconclusive: 20 µM [inhibitor, partial curve, poor fit]"
10,CC(C)NCC(O)c1ccc(O)c(O)c1 (stereo not given),"inconclusive: 25.1 µM [inhibitor, partial curve, poor fit]"
11,CC(C)(C)c1ccc(S(=O)(=O)/C=C/C#N)cc1,"inconclusive: 3.16 µM [inhibitor, full curve, poor fit]"
12,NNc1nncc2ccccc12,"inconclusive: 14.1 µM [inhibitor, partial curve, poor fit]"
13,Oc1cc(O)cc(/C=C/c2ccc(O)c(O)c2)c1,"inconclusive: 17.8 µM [inhibitor, partial curve, poor fit]"
14,CCN(CC)CCCC(C)Nc1c2ccc(Cl)cc2nc2ccc(OC)cc12 (stereo not given),"inconclusive: 39.8 µM [inhibitor, single point]"
15,O=C(O)c1cccnc1Nc1cccc(C(F)(F)F)c1,inactive
16,N[C@@H](Cc1c[nH]c2ccc(O)cc12)C(=O)O,"inconclusive: 22.4 µM [inhibitor, partial curve, poor fit]"
17,COc1cc2nc(N3CCCN(C)CC3)nc(NC3CCN(Cc4ccccc4)CC3)c2cc1OC,"inconclusive: 22.4 µM [inhibitor, partial curve, poor fit]"
18,Oc1ccc(C2CNCc3sccc32)cc1O (stereo not given),"inconclusive: 20 µM [inhibitor, partial curve, poor fit]"
19,Cc1[nH]c(=O)c(C#N)cc1-c1ccc2nccn2c1,inactive
20,O=c1[nH]c(=O)c2nc3ccccc3nc2[nH]1,"inconclusive: 31.6 µM [inhibitor, partial curve, poor fit]"
